# The campaign covered roughly 310,000 compounds. About 2,200 (0.71%) showed an effect of 50% or more. Effects have a minus sign here. This is one part of the list.
# Biological target: human ether-à-go-go-related gene (hERG) potassium channel (human, UniProt Q12809)
# Experiment: primary screen, population patch clamp on CHO cells stably expressing hERG
# Sequence of human ether-à-go-go-related gene (hERG) potassium channel (Q12809 whole entry, looked up): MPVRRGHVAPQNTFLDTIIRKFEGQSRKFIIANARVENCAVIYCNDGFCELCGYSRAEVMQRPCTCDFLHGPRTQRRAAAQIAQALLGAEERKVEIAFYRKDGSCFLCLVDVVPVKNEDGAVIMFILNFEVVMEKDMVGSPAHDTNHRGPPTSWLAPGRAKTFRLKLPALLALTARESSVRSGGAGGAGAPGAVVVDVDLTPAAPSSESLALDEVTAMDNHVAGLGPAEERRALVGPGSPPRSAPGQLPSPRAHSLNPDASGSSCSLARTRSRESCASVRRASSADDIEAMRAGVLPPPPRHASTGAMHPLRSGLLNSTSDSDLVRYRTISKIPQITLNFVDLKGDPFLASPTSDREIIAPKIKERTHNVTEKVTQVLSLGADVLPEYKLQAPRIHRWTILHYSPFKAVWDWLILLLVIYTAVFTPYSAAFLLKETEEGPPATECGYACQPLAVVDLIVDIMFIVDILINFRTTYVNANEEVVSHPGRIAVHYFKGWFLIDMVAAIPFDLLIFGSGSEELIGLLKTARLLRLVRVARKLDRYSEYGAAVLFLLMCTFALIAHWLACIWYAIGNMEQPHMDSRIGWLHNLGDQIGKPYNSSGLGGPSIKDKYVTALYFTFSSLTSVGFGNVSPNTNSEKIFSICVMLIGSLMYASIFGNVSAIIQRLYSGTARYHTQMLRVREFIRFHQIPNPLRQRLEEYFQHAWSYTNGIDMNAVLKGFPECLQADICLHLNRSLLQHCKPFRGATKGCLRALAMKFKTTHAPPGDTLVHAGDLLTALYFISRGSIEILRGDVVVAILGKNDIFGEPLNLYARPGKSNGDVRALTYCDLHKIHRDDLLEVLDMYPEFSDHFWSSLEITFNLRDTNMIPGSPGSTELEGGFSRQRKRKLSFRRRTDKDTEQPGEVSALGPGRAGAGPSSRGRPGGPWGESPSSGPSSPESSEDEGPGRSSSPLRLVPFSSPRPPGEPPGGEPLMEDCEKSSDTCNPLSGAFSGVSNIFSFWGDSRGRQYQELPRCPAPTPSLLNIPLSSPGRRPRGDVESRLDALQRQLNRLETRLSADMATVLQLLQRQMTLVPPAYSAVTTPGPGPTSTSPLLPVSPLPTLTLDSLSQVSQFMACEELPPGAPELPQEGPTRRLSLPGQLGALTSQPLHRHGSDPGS
row,SMILES,"hERG current change (%, negative = inhibition) at 1uM [%]"
1,COc1ccc(S(=O)(=O)Nc2ccc3oc(C)c(C(=O)O)c3c2)cc1,17.9
2,N#CCCN(Cc1cccnc1)C(=O)c1sc2cc(F)ccc2c1Cl,0.623
3,CN(C)C=O.Cc1cc(-c2ccco2)c(C#N)c2nc3ccccc3n12,-2.47
4,C=CCNC(=O)c1oc2ccc(S(=O)(=O)N3CCC4(CC3)OCCO4)cc2c1C,9.37
5,CCc1noc(C)c1C(=O)N1CCSC1=Nc1cccc(Cl)c1C,13.2
6,CC(C)(C)c1ccccc1OCC(=O)Nc1ccccc1C(=O)NCc1cccnc1,25.2
7,O=C(c1ccco1)N1CCN(C(=O)c2cc3c(s2)-c2ccccc2OC3)CC1,-10.5
8,O=C(c1cc(-c2cccs2)on1)N1CCN(C(c2ccccc2)c2ccccc2)CC1,5.97
9,O=S(=O)(NCC1CCCO1)c1ccccc1 (stereo not shown),14.6
10,CCOC(=O)c1ccccc1NC(=O)CSc1ccc(-c2ccccn2)nn1,9.27
11,O=C(Nc1ccc(S(=O)(=O)Nc2ccccc2)cc1)c1ccc(CN2CCOCC2)cc1,-0.107
12,O=C(NCc1ccc(F)cc1)c1cc(-c2cccs2)on1,12.3
13,COc1ccc(CNC(=O)CCCNC(=O)c2ccc(Cl)cc2)cc1OC,8.76
14,COCCn1cnc2c(c1=O)c1nc3ccccc3nc1n2/N=C/c1ccco1,16.2
15,N#Cc1c(NCCO)nc(NCc2ccccc2)c2c1CCN(Cc1ccccc1)C2,-4.52
16,O=C(Nc1cccc(S(=O)(=O)N2CCCCC2)c1)c1ccccn1,9.62
17,O=C(NCCCN1CCCC1=O)c1cc(COc2ccc(F)cc2F)on1,4.66
18,Cc1ccc(CNC(=O)C2CCN(S(=O)(=O)c3c(C)noc3/C=C/c3ccco3)CC2)cc1,-2.87
19,CCOC(=O)N1CCN(Cc2nc(CC3CC3)no2)CC1,15.4
20,Cc1ccccc1CNC(=O)C(=O)NCC1OCCCN1S(=O)(=O)c1ccc(F)cc1C (stereo not shown),15.3
21,CC(C)n1cc(C(=O)c2ccccc2O)cc(C#N)c1=O,9.14
22,COc1ccc(-n2c(=S)[nH]c3cc(C(=O)Nc4cc(OC)c(OC)c(OC)c4)ccc3c2=O)c(OC)c1,13.2

row,SMILES,"hERG current change (%, negative = inhibition) at 1uM [%]"
1,O=C(NCCc1ccccc1)C1CC1,11.9
2,O=C(Nc1ccc(O)c2c(=O)cc(-c3ccccc3Cl)oc12)c1ccc(Cl)c(Cl)c1,10
3,O=C(NCc1cn2ccsc2n1)c1cccs1,5.44
4,C=CCn1c(SCc2nc3sc(C(=O)O)c(C)c3c(=O)[nH]2)nnc1-c1ccc(F)cc1,7.42
5,CCOc1ccccc1NC(=O)COC(=O)C(CC)c1ccccc1 (stereo not shown),0.794
6,O=C(CC1S/C(=N\S(=O)(=O)c2ccccc2)N(c2ccccc2)C1=O)Nc1ccc(F)cc1 (stereo not shown),7.33
7,CCn1c2ccccc2c2cc(NC(=O)CSc3nnc(-c4cccc(C)c4)o3)ccc21,11.7
8,O=C(OC(c1ccc(NS(=O)(=O)c2ccccc2)cc1)(C(F)(F)F)C(F)(F)F)c1ccccc1,-6.41
9,Cc1ccc(N2CN(S(=O)(=O)c3cccc([N+](=O)[O-])c3)c3nc4ccccc4nc32)cc1,0.325
10,CNC(=O)/C(C#N)=C/c1cc(C)n(-c2ccc(N3CCOCC3)cc2)c1C,10.9
11,O=C(O)COc1ccc2occ(C(=O)c3ccccc3)c2c1,-7.22
12,Cc1ccc(NC(=O)CCCNC(=O)c2ccc(Cl)cc2)c(O)c1,-2.02
13,O=C(Nc1cccc(Br)c1)c1cccc(OC(=S)N2CCOCC2)c1,10.6
14,CCCC(=O)C1C(=O)CC(CC(C)SCC)CC1=O (stereo not shown),9.72
15,CCCCN(C)CCNC(=O)C(NC(=O)C1CCC(C)CC1)C(C)C (stereo not shown),3.54
16,NC(N)=NC(N)=Nc1ccc(O)cc1,7.52
17,CC(CCc1ccco1)N(C)S(=O)(=O)c1csc(C(N)=O)c1 (stereo not shown),6.68
18,Cc1n[nH]c(=O)c2c(NC(=O)COC(=O)/C=C/c3cccc(C(F)(F)F)c3)oc(C)c12,13
19,O=C(CCOc1ccccc1)N1CCN(S(=O)(=O)c2ccccc2F)CC1,13.5
20,Nc1nc(CN2CCN(c3ccccn3)CC2)nc(Nc2ccc(Cl)cc2)n1,-56.2
21,CCCCCOc1ccccc1C(=O)NCCCCCC(=O)O,-14.5
22,CC(C)(C)c1nc(SCC(=O)N2CC(=O)Nc3ccccc32)c2ccccc2n1,22.1

row,SMILES,"hERG current change (%, negative = inhibition) at 1uM [%]"
1,CCn1c(CSc2nnc(-c3cccnc3)n2-c2ccccc2C)nc2cc(C(=O)O)ccc21.Cl,-7.29
2,COc1ccccc1CNc1ccc(N2CCOCC2)c(C(=O)O)c1,-0.542
3,COC(=O)Nc1ccc(S(=O)(=O)N2CCCC(C(=O)N3CCC(C)CC3)C2)cc1 (stereo not shown),-11.6
4,CCc1ccc(NC(=O)C(C)Sc2nnc(CN3CCCC3)o2)cc1 (stereo not shown),4.55
5,O=C(N/N=C/C=C/c1ccccc1)c1cccc(Br)c1,11.5
6,O=C(CN1CCCCCC1)OCCN=C1NS(=O)(=O)c2ccccc21,-2.6
7,COC(=O)c1ccccc1OCCOCCOc1cccc2cccnc12,-5.94
8,COc1ccc(-n2c(CN3CCOCC3)nc3ccccc3c2=O)c(OC)c1,22.8
9,COc1ccccc1/C=C/C1=NC(=C\N(C)C)/C(=O)O1,1.12
10,Cc1ccc(C(=O)NC2(O)C(=O)c3ccccc3C2=O)cc1C,12.6
11,CCOCCCNC(=S)N1CCN(Cc2ccco2)CC1.O=C(O)C(=O)O,18
12,CC(C)(C)c1ccc(C(=O)N2CCC(C(=O)NC3CCCCCC3)CC2)cc1,-6.37
13,CCN(CC)CCN=Cc1c(O)n(Cc2ccccc2)c(=O)[nH]c1=O [14739636],-3.04
14,Cc1cnc(NC(=O)c2ccc3c(c2)C(=O)N(Cc2ccco2)C3=O)s1,-6.71
15,Cc1ccc(NC(=O)/C(=C\c2ccco2)NC(=O)c2ccco2)cc1,8.86
16,COc1ccc(C2Nc3ccccc3C(=O)N2Cc2ccccc2)cc1Cn1nnc2ccccc21 (stereo not shown),2.21
17,CC(C)c1cc(=O)oc2c3c4c(cc12)CCCN4CCC3,2.01
18,Cl.OC(COCc1ccccc1)CN1CCCCC1 (stereo not shown),11.8
19,CCn1c(SCC(=O)Nc2cc(C)on2)nnc1-c1ccc(OC)cc1,3.87
20,CCOC(=O)CC(NC(=O)c1cc2cccc(OC)c2oc1=O)c1ccc(OC)cc1 (stereo not shown),13.4
21,NS(=O)(=O)c1ccc(CNC(=S)NCc2ccc(F)cc2)cc1,10.1
22,CCSc1nc(C)cc(C)c1S(=O)(=O)c1ccccc1C,6.91

row,SMILES,"hERG current change (%, negative = inhibition) at 1uM [%]"
1,COc1ccccc1CNC(=O)CCCOc1cc(=O)n(C)c2ccccc12,24.8
2,CCOC(=O)c1sc(=S)n(CC)c1NC(=O)C1CC1,9
3,CN(C)/C=N/c1nc2nccc(-c3ccccn3)n2n1,10.3
4,CC(=O)N1CCC(C(=O)OCc2ccc(Cl)cc2)(c2ccccc2)CC1,19.1
5,COc1cc(C(=O)NCC(=O)OC(C)C(=O)Nc2ncc(Cl)cc2Cl)cc(OC)c1OC (stereo not shown),13
6,C=CCn1c(SCC(=O)c2ccc(OC)cc2)nnc1-c1ccc2c(c1)OCO2,4.12
7,O=C(O)c1cccc(C(=O)O)c1,16.1
8,Cc1nc2ccc(N=NN(C)C)cc2[nH]1,9.55
9,O=C(CCn1c(=O)[nH]c2ccccc2c1=O)N1CCN(c2ccc(Cl)cc2)CC1,-4.13
10,O=C(O)c1ccc(N2Cc3ccccc3C2)cc1O,6.71
11,CCC1(c2ccccc2)C(=O)N(C)C(=O)N(C)C1=O,15.3
12,CC(C)c1ccc(/C=N/NC(=O)c2ccccc2Cl)cc1,7.12
13,CN1CCN(C(=O)CSc2cc(=O)n(C)c3ccccc23)CC1,10.7
14,O=C(NC1CCCCC1)[C@@H]1CSC2c3ccccc3C(=O)N21 (stereo partly shown),13.3
15,C/C(=N/NC(=O)C1CC1(c1ccccc1)c1ccccc1)c1cccs1 (stereo not shown),16.2
16,O=C(COc1coc(CN2CCN(c3ccccc3)CC2)cc1=O)N1CCc2ccccc21,-0.178
17,N#CCCN(C(=O)COC(=O)CCc1nc2ccccc2c(=O)[nH]1)c1ccccc1F,9.76
18,CCCN(CC1CC1)C(=O)COC(=O)c1oc2c(F)cccc2c1C,-14.9
19,CC(C)(C)c1ccc(S(=O)(=O)CCc2ccccn2)cc1,6.35
20,COc1ccccc1NC(=O)c1cn(C)c(=O)c2cc(OC)c(OC)cc12,8.43
21,CN(CCC#N)C(=O)COC(=O)c1ccc(Cl)c(S(N)(=O)=O)c1,17.9
22,CC(=O)c1ccccc1NC(=O)COC(=O)c1c(C)nn(-c2ccccc2)c1C,13.6

# — paper PMC4336329 (PLoS ONE, 2015)
